In patent US11178870B2 (priority 2017, dated 2021):

How the values were obtained:
Magnaporthe grisea = assay type: in vivo; conditions: Table 7, Test A
Phytophthora infestans = assay type: in vivo; conditions: Table 7, Test F
[1] = system: Colletotrichum orbiculare; conditions: 250 ppm sprayed (2.5 ml/pot) before inoculation; assessed 6 to 10 days after inoculation

| SMILES | control value, Test A (blast on rice) (Magnaporthe grisea) | control value, Test F (late blight on tomato) (Phytophthora infestans) | control value, Test H (anthracnose on cucumber) [1] |
| --- | --- | --- | --- |
| CCn1c(-c2c(F)cccc2F)c(-c2sccc2C)ccc1=O [Compound 359] | H (H shows the control value more than 50%) | – | – |
| O=c1c(Cl)cc(-n2cc(Cl)cn2)c(-c2ccccc2Cl)n1CC(F)F [Compound 293] | H (H shows the control value more than 50%) | L (L shows the control value of 50% or less) | L (L shows the control value of 50% or less) |
| Cc1ccccc1-c1c(-n2ncc(C)c2Cl)cc(Br)c(=O)n1CC(F)F [Compound 307] | H (H shows the control value more than 50%) | L (L shows the control value of 50% or less) | H (H shows the control value more than 50%) |
| CCn1c(-c2ccc(F)cc2Br)c(-n2ncc(C)c2Cl)cc(Br)c1=O [Compound 333] | H (H shows the control value more than 50%) | L (L shows the control value of 50% or less) | H (H shows the control value more than 50%) |
| CCn1c(-c2ccccc2Br)c(-n2cc(Cl)cn2)cc(Cl)c1=O [Compound 195] | H (H shows the control value more than 50%) | L (L shows the control value of 50% or less) | H (H shows the control value more than 50%) |
| CCn1c(-c2c(F)cccc2Cl)c(-n2cc(Cl)cn2)cc(Cl)c1=O [Compound 198] | L (L shows the control value of 50% or less) | L (L shows the control value of 50% or less) | L (L shows the control value of 50% or less) |
| O=c1c(Br)cc(-c2cc(Br)sc2Br)c(-c2c(F)cccc2F)n1CC(F)F [Compound 325] | L (L shows the control value of 50% or less) | L (L shows the control value of 50% or less) | L (L shows the control value of 50% or less) |
| O=c1c(Br)cc(-n2cc(Cl)cn2)c(-c2ccc(F)cc2Cl)n1CC(F)F [Compound 235] | H (H shows the control value more than 50%) | L (L shows the control value of 50% or less) | L (L shows the control value of 50% or less) |
| Cc1cnn(-c2cc(Br)c(=O)n(CC(F)F)c2-c2ccccc2Cl)c1Cl [Compound 230] | H (H shows the control value more than 50%) | L (L shows the control value of 50% or less) | H (H shows the control value more than 50%) |
| CCn1c(-c2ccccc2C)c(-n2cc(C)cn2)cc(Br)c1=O [Compound 237] | L (L shows the control value of 50% or less) | L (L shows the control value of 50% or less) | L (L shows the control value of 50% or less) |
| Cc1cnn(-c2cc(Br)c(=O)n(CC(F)F)c2-c2ccccc2F)c1Cl [Compound 312] | H (H shows the control value more than 50%) | L (L shows the control value of 50% or less) | H (H shows the control value more than 50%) |
| Cc1cnn(-c2cc(Br)c(=O)n(CC(F)F)c2-c2ccccc2C)c1 [Compound 304] | L (L shows the control value of 50% or less) | L (L shows the control value of 50% or less) | L (L shows the control value of 50% or less) |
| O=c1c(Br)cc(-n2cc(Cl)cn2)c(-c2ccc(F)cc2F)n1CC(F)F [Compound 214] | H (H shows the control value more than 50%) | L (L shows the control value of 50% or less) | L (L shows the control value of 50% or less) |
| O=c1c(Cl)cc(-c2cc(Cl)sc2Br)c(-c2c(F)cccc2F)n1CC(F)F [Compound 349] | H (H shows the control value more than 50%) | L (L shows the control value of 50% or less) | H (H shows the control value more than 50%) |
